Test systems include A101D; A2058; A375.
Common to all, as to experiment: cell count relative to DMSO control; melanoma cells; higher = more viable cells
What all share (settings): library dose: standard library concentration; 72 h

Consider twelve compounds from the supplement of paper PMC4604168 (melanoma cell lines).

SMILES strings stand for the structures. The list shows a part of the results. Many values rest on one well or one pass, so single values are uncertain.
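Note: cells treated in 1,536-well plates, then fixed and DAPI-stained, with nuclei counted from automated high-throughput microscope images.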

For `Cn1c(=O)n(-c2ccc(C(C)(C)C#N)cc2)c2c3cc(-c4cnc5ccccc5c4)ccc3ncc21` + C=CCn1c(=O)c2cnc(Nc3ccc(N4CCN(C)CC4)cc3)nc2n1-c1cccc(C(C)(C)O)n1 [MK1775] (first compound 0.02 µM, partner dose 0.1 µM), the cell count with A101D amounted to 59.6%; in the test with A2058, 59.8%; in the test with A375, 42.8%.
For `Cc1cn(-c2cc(NC(=O)c3ccc(C)c(Nc4nccc(-c5cccnc5)n4)c3)cc(C(F)(F)F)c2)cn1` [nilotinib] + Cn1sc(=O)n(Cc2ccccc2)c1=O [TDZD-8] (first compound 1 µM, partner dose 2 µM) the same measures were 116%, 95.8% and 114%.
Take `Cc1cn(-c2cc(NC(=O)c3ccc(C)c(Nc4nccc(-c5cccnc5)n4)c3)cc(C(F)(F)F)c2)cn1` [nilotinib] + OCCn1cc(-c2cnc3nnn(Cc4ccc5ncccc5c4)c3n2)cn1 [PF04217903] (first compound 1 µM, partner dose 5 µM): the cell count turned out to be 85.9% in the test with A101D, 92.4% with A2058 and 117% with A375.
The matching figures for `Cn1c(=O)n(-c2ccc(C(C)(C)C#N)cc2)c2c3cc(-c4cnc5ccccc5c4)ccc3ncc21` + CN1CCN(c2ccc3nc(-c4c(N)c5c(F)cccc5[nH]c4=O)[nH]c3c2)CC1 [Dovitinib] (first compound 0.02 µM, partner dose 0.5 µM): 77.3%, 41.9% and 78.8%.
For `COc1ccc(C2=N[C@@H](c3ccc(Cl)cc3)[C@@H](c3ccc(Cl)cc3)N2C(=O)N2CCNC(=O)C2)c(OC(C)C)c1` [Nutlin-3] + O=C(O)c1ccc(-c2c[nH]c3ncc(-c4ccccc4)cc23)cc1C1CCCC1 [GSK650394] (first compound 0.5 µM, partner dose 0.8 µM) the same measures were 56.1%, 89.6% and 75.8%.
For `CC(C)C[C@H](NC(=O)[C@H](Cc1ccccc1)NC(=O)c1cnccn1)B(O)O` [Bortezomib] + CN1CCN(c2ccc3nc(-c4c(N)c5c(F)cccc5[nH]c4=O)[nH]c3c2)CC1 [Dovitinib] (first compound 0.005 µM, partner dose 0.5 µM) the same measures were 14.3%, 9.71% and 74.6%.
`Cc1cc(Nc2cc(N3CCN(C)CC3)nc(/C=C/c3ccccc3)n2)n[nH]1` + C[C@@H](Oc1cc(-c2cnn(C3CCNCC3)c2)cnc1N)c1c(Cl)ccc(F)c1Cl [Crizotinib] (first compound 0.2 µM, partner dose 1 µM): the cell count in the test on A101D came to 73.7%; in the test on A2058, 42.2%; with A375, 84.8%.
The matching figures for `COc1ccc(C2=N[C@@H](c3ccc(Cl)cc3)[C@@H](c3ccc(Cl)cc3)N2C(=O)N2CCNC(=O)C2)c(OC(C)C)c1` [Nutlin-3] + C[C@]1(O)C[C@@H](c2nc(-c3ccc4ccc(-c5ccccc5)nc4c3)c3c(N)nccn32)C1 [OSI906] (first compound 0.5 µM, partner dose 2 µM): 88.6%, 93.5% and 97.9%.
For `CC(C)C[C@H](NC(=O)[C@H](Cc1ccccc1)NC(=O)c1cnccn1)B(O)O` [Bortezomib] + C=CCn1c(=O)c2cnc(Nc3ccc(N4CCN(C)CC4)cc3)nc2n1-c1cccc(C(C)(C)O)n1 [MK1775] (first compound 0.005 µM, partner dose 0.1 µM) the same measures were 25%, 15.1% and 75.3%.
For `Cc1cn(-c2cc(NC(=O)c3ccc(C)c(Nc4nccc(-c5cccnc5)n4)c3)cc(C(F)(F)F)c2)cn1` [nilotinib] + CN(C)S(=O)(=O)c1ccc2c(c1)/C(=C/c1cc3c([nH]1)CCCC3)C(=O)N2 [SU6656] (first compound 1 µM, partner dose 2 µM) the same measures were 81.3%, 79.9% and 124%.
Regarding `COc1ccc(C2=N[C@@H](c3ccc(Cl)cc3)[C@@H](c3ccc(Cl)cc3)N2C(=O)N2CCNC(=O)C2)c(OC(C)C)c1` [Nutlin-3] + CC(=O)O[C@@]12CO[C@@H]1C[C@H](O)[C@@]1(C)C(=O)[C@H](O)C3=C(C)[C@@H](OC(=O)[C@H](O)[C@@H](NC(=O)OC(C)(C)C)c4ccccc4)C[C@@](O)([C@@H](OC(=O)c4ccccc4)[C@H]21)C3(C)C [Docetaxel] (first compound 0.5 µM, partner dose 0.0005 µM), the figures for the cell count in the test on A101D, with A2058 and with A375 were 45.1%, 8.42% and 76.7%, respectively.
The matching figures for `Cc1cc(Nc2cc(N3CCN(C)CC3)nc(/C=C/c3ccccc3)n2)n[nH]1` + COc1ccc(Cl)c(Nc2nc3ccccc3nc2NS(=O)(=O)c2cccc(NC(=O)C(C)(C)N)c2)c1 [XL147] (first compound 0.2 µM, partner dose 4 µM): 83.3%, 66.3% and 70.2%.
